# The other results are listed elsewhere or left out.
# B1: GALT1 115 D492A (Arabidopsis thaliana), Q8L7F9 (protein)
# chain: DPMRGSHHHHHHGMASMTGGQQMGRDLYDDDDKSRLQKPYITAAASVVVTPNTTLPMEWLRITLPDFMKEARNTQEAISGDDIAVVSGLFVEQNVSKEEREPLLTWNRLESLVDNAQSLVNGVDAIKEAGIVWESLVSAVEAKKLVDVNENQTRKGKEELCPQFLSKMNATEADGSSLKLQIPCGLTQGSSITVIGIPDGLVGSFRIDLTGQPLPGEPDPPIIVHYNVRLLGDKSTEDPVIVQNSWTASQDWGAEERCPKFDPDMNKKVDDLDECNKMVGGEINRTSSTSLQSNTSRGVPVAREASKHEKYFPFKQGFLSVATLRVGTEGMQMTVDGKHITSFAFRDTLEPWLVSEIRITGDFRLISILASGLPTSEESEHVVDLEALKSPTLSPLRPLDLVIGVFSTANNFKRRMAVRRTWMQYDDVRSGRVAVRFFVGLHKSPLVNLELWNEARTYGDVQLMPFVDYYSLISWKTLAICIFGTEVDSAKFIMKTDDAAFVRVDEVLLSLSMTNNTRGLIYGLINSDSQPIRNPDSKWYISYEEWPEEKYPPWAHGPGYIVSRDIAESVGKLFKEGNLKMFKLEDVAMGIWIAELTKHGLEPHYENDGRIISDGCKDGYVVAHYQSPAEMTCLWRKYQETKRSLCCREW
# What was measured:
# Experiment in all cases: glycan array binding signal (z-score within array); higher = stronger binding
# Conditions in all cases: glycan notation: IUPAC condensed, linker removed
# [1] = biological target: GlcNAc(b1-4)GlcNAc
# Summary of the method: (§1)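 The binding signal is a Z-score computed within each array. Data were drawn from 3228 arrays in the Consortium for Functional Glycomics database, restricted to those with a known protein sequence. Scores were averaged over arrays of the same protein sequence at different concentrations or buffers, and over linkers, and negative values can be taken as non-binding.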
# [2] = biological target: GlcNAc(b1-4)GlcNAc(b1-4)GlcNAc
# Summary of the method: as §1
# [3] = biological target: GlcNAc(b1-4)GlcNAc(b1-4)GlcNAc(b1-4)GlcNAc(b1-4)GlcNAc
# Summary of the method: as §1
# [4] = biological target: GlcNAc(b1-4)GlcNAc(b1-4)GlcNAc(b1-4)GlcNAc(b1-4)GlcNAc(b1-4)GlcNAc
# Summary of the method: as §1
# [5] = biological target: GlcNAc(b1-4)[GlcNAc(b1-6)]GalNAc
# Summary of the method: as §1
# [6] = biological target: GlcNAc(b1-6)Gal(b1-4)GlcNAc
# Summary of the method: as §1
# [7] = biological target: GlcNAc(b1-6)GalNAc
# Summary of the method: as §1
# [8] = biological target: GlcNAc3Prop(b1-4)GlcNAc
# Summary of the method: as §1
# [9] = biological target: GlcNAc6S(b1-3)Gal(b1-4)GlcNAc
# Summary of the method: as §1
# [10] = biological target: Kdn(a2-3)Gal(b1-3)GalNAc
# Summary of the method: as §1
# [11] = biological target: Kdn(a2-3)Gal(b1-3)GlcNAc
# Summary of the method: as §1
# [12] = biological target: Kdn(a2-3)Gal(b1-4)Glc
# Summary of the method: as §1
# [13] = biological target: Kdn(a2-3)Gal(b1-4)GlcNAc
# Summary of the method: as §1
# [14] = biological target: Kdn(a2-3)Gal(b1-4)[Fuc(a1-3)]GlcNAc
# Summary of the method: as §1
# [15] = biological target: Kdn(a2-6)Gal(b1-4)GlcNAc
# Summary of the method: as §1
# [16] = biological target: Man(a1-2)Man(a1-2)Man(a1-3)Man
# Summary of the method: as §1
# [17] = biological target: Man(a1-2)Man(a1-2)Man(a1-6)[Man(a1-3)]Man
# Summary of the method: as §1
# [18] = biological target: Man(a1-2)Man(a1-3)Man
# Summary of the method: as §1
# [19] = biological target: Man(a1-2)Man(a1-3)[Man(a1-2)Man(a1-6)]Man
# Summary of the method: as §1
# [20] = biological target: Man(a1-2)Man(a1-3)[Man(a1-2)Man(a1-6)]Man(a1-6)[Man(a1-2)Man(a1-2)Man(a1-3)]Man
# Summary of the method: as §1
# [21] = biological target: Man(a1-2)Man(a1-3)[Man(a1-2)Man(a1-6)]Man(a1-6)[Man(a1-2)Man(a1-2)Man(a1-3)]Man(b1-4)GlcNAc(b1-4)GlcNAc
# Summary of the method: as §1
# [22] = biological target: Man(a1-2)Man(a1-3)[Man(a1-6)]Man(a1-6)[Man(a1-2)Man(a1-3)]Man(b1-4)GlcNAc(b1-4)GlcNAc
# Summary of the method: as §1
# [23] = biological target: Man(a1-2)Man(a1-6)[Man(a1-3)]Man(a1-6)[Man(a1-2)Man(a1-2)Man(a1-3)]Man
# Summary of the method: as §1
# [24] = biological target: Man(a1-2)Man(a1-6)[Man(a1-3)]Man(a1-6)[Man(a1-2)Man(a1-2)Man(a1-3)]Man(b1-4)GlcNAc(b1-4)GlcNAc
# Summary of the method: as §1
# [25] = biological target: Man(a1-3)[Man(a1-6)]Man
# Summary of the method: as §1
# [26] = biological target: Man(a1-3)[Man(a1-6)]Man(a1-6)[Man(a1-2)Man(a1-3)]Man(b1-4)GlcNAc(b1-4)GlcNAc
# Summary of the method: as §1
# [27] = biological target: Man(a1-3)[Man(a1-6)]Man(a1-6)[Man(a1-3)]Man
# Summary of the method: as §1
# [28] = biological target: Man(a1-3)[Man(a1-6)]Man(a1-6)[Man(a1-3)]Man(b1-4)GlcNAc(b1-4)GlcNAc
# Summary of the method: as §1
# [29] = biological target: Man(a1-3)[Man(a1-6)]Man(b1-4)GlcNAc(b1-4)GlcNAc
# Summary of the method: as §1
# [30] = biological target: Man(a1-6)Man
# Summary of the method: as §1
# [31] = biological target: Man(b1-4)GlcNAc
# Summary of the method: as §1
# [32] = biological target: Neu5Ac(a2-3)Gal
# Summary of the method: as §1
# [33] = biological target: Neu5Ac(a2-3)Gal(b1-3)GalNAc
# Summary of the method: as §1
# [34] = biological target: Neu5Ac(a2-3)Gal(b1-3)GalNAc(b1-3)Gal(a1-4)Gal(b1-4)Glc
# Summary of the method: as §1
# [35] = biological target: Neu5Ac(a2-3)Gal(b1-3)GalNAc(b1-3)Gal(b1-4)GlcNAc
# Summary of the method: as §1
# [36] = biological target: Neu5Ac(a2-3)Gal(b1-3)GalNAc(b1-4)[Neu5Ac(a2-3)]Gal(b1-4)Glc
# Summary of the method: as §1
# [37] = biological target: Neu5Ac(a2-3)Gal(b1-3)GalNAc6S
# Summary of the method: as §1
# [38] = biological target: Neu5Ac(a2-3)Gal(b1-3)GlcNAc
# Summary of the method: as §1
# [39] = biological target: Neu5Ac(a2-3)Gal(b1-3)GlcNAc(b1-3)Gal(b1-3)GlcNAc
# Summary of the method: as §1
# [40] = biological target: Neu5Ac(a2-3)Gal(b1-3)GlcNAc6S
# Summary of the method: as §1
# [41] = biological target: Neu5Ac(a2-3)Gal(b1-3)[Fuc(a1-4)]GlcNAc
# Summary of the method: as §1
# [42] = biological target: Neu5Ac(a2-3)Gal(b1-3)[Fuc(a1-4)]GlcNAc(b1-3)Gal(b1-3)[Fuc(a1-4)]GlcNAc
# Summary of the method: as §1
# [43] = biological target: Neu5Ac(a2-3)Gal(b1-3)[Fuc(a1-4)]GlcNAc(b1-3)Gal(b1-4)[Fuc(a1-3)]GlcNAc
# Summary of the method: as §1
# [44] = biological target: Neu5Ac(a2-3)Gal(b1-3)[Neu5Ac(a2-3)Gal(b1-4)]GlcNAc
# Summary of the method: as §1
# [45] = biological target: Neu5Ac(a2-3)Gal(b1-3)[Neu5Ac(a2-6)]GalNAc
# Summary of the method: as §1
# [46] = biological target: Neu5Ac(a2-3)Gal(b1-4)Glc
# Summary of the method: as §1
# [47] = biological target: Neu5Ac(a2-3)Gal(b1-4)GlcNAc
# Summary of the method: as §1
# [48] = biological target: Neu5Ac(a2-3)Gal(b1-4)GlcNAc(b1-2)Man(a1-3)[GlcNAc(b1-2)Man(b1-4)GlcNAc(b1-2)Man(a1-6)]Man(b1-4)GlcNAc(b1-4)GlcNAc
# Summary of the method: as §1
# [49] = biological target: Neu5Ac(a2-3)Gal(b1-4)GlcNAc(b1-2)Man(a1-3)[Neu5Ac(a2-6)Gal(b1-4)GlcNAc(b1-2)Man(a1-6)]Man(b1-4)GlcNAc(b1-4)GlcNAc
# Summary of the method: as §1
# [50] = biological target: Neu5Ac(a2-3)Gal(b1-4)GlcNAc(b1-3)Gal(b1-3)GlcNAc
# Summary of the method: as §1
# [51] = biological target: Neu5Ac(a2-3)Gal(b1-4)GlcNAc(b1-3)Gal(b1-4)GlcNAc
# Summary of the method: as §1
# [52] = biological target: Neu5Ac(a2-3)Gal(b1-4)GlcNAc(b1-3)Gal(b1-4)GlcNAc(b1-3)Gal(b1-4)GlcNAc
# Summary of the method: as §1
# [53] = biological target: Neu5Ac(a2-3)Gal(b1-4)GlcNAc(b1-3)Gal(b1-4)[Fuc(a1-3)]GlcNAc
# Summary of the method: as §1
# [54] = biological target: Neu5Ac(a2-3)Gal(b1-4)GlcNAc(b1-3)GalNAc
# Summary of the method: as §1
# [55] = biological target: Neu5Ac(a2-3)Gal(b1-4)GlcNAc(b1-6)[Gal(b1-3)]GalNAc
# Summary of the method: as §1
# [56] = biological target: Neu5Ac(a2-3)Gal(b1-4)GlcNAc(b1-6)[Neu5Ac(a2-3)Gal(b1-3)]GalNAc
# Summary of the method: as §1
# [57] = biological target: Neu5Ac(a2-3)Gal(b1-4)GlcNAc6S
# Summary of the method: as §1
# [58] = biological target: Neu5Ac(a2-3)Gal(b1-4)[Fuc(a1-3)]GlcNAc
# Summary of the method: as §1
# [59] = biological target: Neu5Ac(a2-3)Gal(b1-4)[Fuc(a1-3)]GlcNAc(b1-3)Gal
# Summary of the method: as §1
# [60] = biological target: Neu5Ac(a2-3)Gal(b1-4)[Fuc(a1-3)]GlcNAc(b1-3)Gal(b1-4)GlcNAc
# Summary of the method: as §1
binder,measurement,setting,value
B1,glycan array binding signal (z-score),[1],-0.112
same,glycan array binding signal (z-score),[2],-0.041
same,glycan array binding signal (z-score),[3],-0.2
same,glycan array binding signal (z-score),[4],-0.17
same,glycan array binding signal (z-score),[5],-0.307
same,glycan array binding signal (z-score),[6],-0.065
same,glycan array binding signal (z-score),[7],0.202
same,glycan array binding signal (z-score),[8],-0.256
same,glycan array binding signal (z-score),[9],-0.344
same,glycan array binding signal (z-score),[10],0.03
same,glycan array binding signal (z-score),[11],0.815
same,glycan array binding signal (z-score),[12],-0.153
same,glycan array binding signal (z-score),[13],0.127
same,glycan array binding signal (z-score),[14],-0.228
same,glycan array binding signal (z-score),[15],-0.152
same,glycan array binding signal (z-score),[16],0.15
same,glycan array binding signal (z-score),[17],0.111
same,glycan array binding signal (z-score),[18],-0.159
same,glycan array binding signal (z-score),[19],-0.381
same,glycan array binding signal (z-score),[20],0.198
same,glycan array binding signal (z-score),[21],-0.311
same,glycan array binding signal (z-score),[22],-0.242
same,glycan array binding signal (z-score),[23],-0.093
same,glycan array binding signal (z-score),[24],-0.076
same,glycan array binding signal (z-score),[25],-0.244
same,glycan array binding signal (z-score),[26],0.404
same,glycan array binding signal (z-score),[27],-0.092
same,glycan array binding signal (z-score),[28],-0.151
same,glycan array binding signal (z-score),[29],-0.126
same,glycan array binding signal (z-score),[30],-0.266
same,glycan array binding signal (z-score),[31],0.076
same,glycan array binding signal (z-score),[32],-0.088
same,glycan array binding signal (z-score),[33],-0.216
same,glycan array binding signal (z-score),[34],0.159
same,glycan array binding signal (z-score),[35],0.353
same,glycan array binding signal (z-score),[36],-0.335
same,glycan array binding signal (z-score),[37],-0.122
same,glycan array binding signal (z-score),[38],-0.243
same,glycan array binding signal (z-score),[39],-0.166
same,glycan array binding signal (z-score),[40],-0.323
same,glycan array binding signal (z-score),[41],-0.288
same,glycan array binding signal (z-score),[42],-0.269
same,glycan array binding signal (z-score),[43],-0.321
same,glycan array binding signal (z-score),[44],-0.145
same,glycan array binding signal (z-score),[45],-0.17
same,glycan array binding signal (z-score),[46],-0.401
same,glycan array binding signal (z-score),[47],-0.047
same,glycan array binding signal (z-score),[48],-0.194
same,glycan array binding signal (z-score),[49],-0.045
same,glycan array binding signal (z-score),[50],-0.104
same,glycan array binding signal (z-score),[51],-0.147
same,glycan array binding signal (z-score),[52],-0.289
same,glycan array binding signal (z-score),[53],-0.212
same,glycan array binding signal (z-score),[54],-0.152
same,glycan array binding signal (z-score),[55],-0.271
same,glycan array binding signal (z-score),[56],-0.27
same,glycan array binding signal (z-score),[57],-0.078
same,glycan array binding signal (z-score),[58],-0.179
same,glycan array binding signal (z-score),[59],0.004
same,glycan array binding signal (z-score),[60],0.671

# Reference: the supplement of paper PMC8728848
